From patent publication US20220098305A1 (Hoffmann-La Roche, published 2022) come the findings set out here.

Assay [1] deals with T1, human ICOS (human, UniProt Q9Y6W8 21-199).
T1 construct: The cell that carries it is named under assay; also called huICOS; CD278
T1 sequence: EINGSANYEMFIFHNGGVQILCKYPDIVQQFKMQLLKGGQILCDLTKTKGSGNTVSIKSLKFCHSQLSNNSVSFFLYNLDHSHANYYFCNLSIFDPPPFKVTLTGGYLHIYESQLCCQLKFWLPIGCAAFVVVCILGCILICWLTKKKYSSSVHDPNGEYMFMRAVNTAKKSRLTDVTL
Description: flow cytometry, CHO cells expressing human ICOS. (In general: A flow cytometer gives signals particle by particle.)

Assay [2] deals with T1, human ICOS. Description: cell-based or functional assay.

B1: Molecule 25 (ICOS H009v1_1) (antibody, human IgG1, kappa)
heavy: EVQLVESGGGLVQPGRSLRLSCTASGFTFSDYWMNWVRQAPGKGLEWVAQIRNKPYNYETYYSDSVKGRFTISRDDSKSIAYLQMNSLKTEDTAVYYCTWPRLRSSDWHFDVWGKGTTVTVSSASTKGPSVFPLAPSSKSTSGGTAALGCLVKDYFPEPVTVSWNSGALTSGVHTFPAVLQSSGLYSLSSVVTVPSSSLGTQTYICNVNHKPSNTKVDKKV[human IgG1 Fc with changes cut from this listing]
light: DIQMTQSPSSLSASVGDRVTITCQASQDINKNIAWYQQKPGKAPKLLIWYTSTLQTGVPSRFSGSGSGTDFTFTISSLQPEDIATYYCLQFDNLYTFGQGTKLEIKRTVAAPSVFIFPPSDEQLKSGTASVVCLLNNFYPREAKVQWKVDNALQSGNSQESVTEQDSKDSTYSLSSTLTLSKADYEKHKVYACEVTHQGLSSPVTKSFNRGEC
notes: Human IgG format
Regarding B1, in assay [1], the concentration giving a half-maximal response (EC50) – broadly, the concentration that produces a half-maximal response – turned out to be 2.92 nM and the “Max (Log10(MFI))” value is 6.55 Log10(MFI). Also, in assay [2], the “EC50 of activation of Jurkat-NFAT reporter cell line” value is approximately 8.11 nM and the “Max (Counts/sec), Jurkat-NFAT reporter cell line” value was determined as 51000 Counts/sec.

B2: Molecule 26 (ICOS H009v1_2) (antibody, human IgG1, kappa)
heavy: EVQLVESGGGLVQPGRSLRLSCTASGFTFSDYWMNWVRQAPGKGLEWVAQIRNKPYNYETYYSDSVKGRFTISRDDSKSIAYLQMNSLKTEDTAVYYCTWPRLRSSDWHFDVWGAGTTVTVSSASTKGPSVFPLAPSSKSTSGGTAALGCLVKDYFPEPVTVSWNSGALTSGVHTFPAVLQSSGLYSLSSVVTVPSSSLGTQTYICNVNHKPSNTKVDKKV[human IgG1 Fc with changes cut from this listing]
light: B1 light
notes: Human IgG format
As for B2, in assay [1], a half-maximal response (EC50) required 5.26 nM and the “Max (Log10(MFI))” value was 7.8 Log10(MFI). Moreover, in assay [2], the “EC50 of activation of Jurkat-NFAT reporter cell line” value is approximately 7.77 nM and the “Max (Counts/sec), Jurkat-NFAT reporter cell line” value came to 55300 Counts/sec.
